The values below come from publication PMC4336329 (PLoS ONE, 2015).

Each structure is given as a SMILES string. Among all 310,000 compounds or so, about 14,000 (4.5%) showed an effect of 50% or more. The effect is printed as a negative number. The list shows a part of the results.
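Further: peak tail current of the secondary pulse compared with the same well before compound.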

Sequence of human ether-à-go-go-related gene (hERG) potassium channel (Q12809 whole entry, looked up): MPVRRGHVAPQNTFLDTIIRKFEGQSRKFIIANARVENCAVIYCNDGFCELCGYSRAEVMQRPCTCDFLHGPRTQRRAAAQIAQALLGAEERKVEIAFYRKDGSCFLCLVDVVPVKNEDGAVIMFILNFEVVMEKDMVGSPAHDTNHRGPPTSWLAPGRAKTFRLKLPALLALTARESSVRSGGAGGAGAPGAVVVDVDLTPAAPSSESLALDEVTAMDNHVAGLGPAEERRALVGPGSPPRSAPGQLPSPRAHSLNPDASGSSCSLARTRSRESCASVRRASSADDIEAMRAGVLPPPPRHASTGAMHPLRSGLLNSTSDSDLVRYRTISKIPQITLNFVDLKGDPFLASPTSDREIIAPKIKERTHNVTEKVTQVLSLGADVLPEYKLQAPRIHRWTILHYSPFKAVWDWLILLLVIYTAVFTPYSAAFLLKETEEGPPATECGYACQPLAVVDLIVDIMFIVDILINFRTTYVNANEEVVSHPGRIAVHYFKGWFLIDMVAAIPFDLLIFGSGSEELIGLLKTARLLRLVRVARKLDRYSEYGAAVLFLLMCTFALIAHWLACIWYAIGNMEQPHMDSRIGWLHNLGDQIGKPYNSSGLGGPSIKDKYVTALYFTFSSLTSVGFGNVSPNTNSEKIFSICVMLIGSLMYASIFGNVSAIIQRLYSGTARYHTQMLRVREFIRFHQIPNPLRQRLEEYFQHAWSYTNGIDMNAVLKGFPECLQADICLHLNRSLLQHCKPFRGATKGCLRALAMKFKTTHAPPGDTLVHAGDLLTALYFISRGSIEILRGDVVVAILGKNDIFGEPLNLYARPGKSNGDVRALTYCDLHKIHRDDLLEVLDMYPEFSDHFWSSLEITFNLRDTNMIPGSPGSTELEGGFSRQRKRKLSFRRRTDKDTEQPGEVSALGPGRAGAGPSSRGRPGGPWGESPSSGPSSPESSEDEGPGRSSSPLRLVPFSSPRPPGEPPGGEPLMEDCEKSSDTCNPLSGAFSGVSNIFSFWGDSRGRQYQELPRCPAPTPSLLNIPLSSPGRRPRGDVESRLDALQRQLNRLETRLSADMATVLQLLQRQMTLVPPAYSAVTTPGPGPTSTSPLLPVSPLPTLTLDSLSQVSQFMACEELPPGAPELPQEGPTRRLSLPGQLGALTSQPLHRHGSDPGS

This assay concerns the target human ether-à-go-go-related gene (hERG) potassium channel (human, UniProt Q12809). Put plainly: primary screen, population patch clamp on CHO cells stably expressing hERG.
With `CSc1nc(NCC(C)C)nc(N2CCOCC2)n1`, the “hERG current change (%, negative = inhibition) at 10uM” value is given as -12.1%.
The figure for `Cc1ccc(C2=C/C(=C/c3cccs3)C(=O)O2)cc1` is -0.922%; for `COc1cccc(C2C(C#N)=C(C)NC3=C2C(=O)CC(C)(C)C3)c1` (centres unmarked) it is -5.17%.
The figure for `O=C(CNC(=S)N(CCCN1CCOCC1)Cc1cccs1)NC1CC1` is -14%; for `CCOC(=O)N1CCc2c(sc(NC(=O)c3ccc(S(=O)(=O)N4CCCC4)cc3)c2C#N)C1` it is 19.3%.
The figure for `CC(Cc1ccsc1)NC(=O)CCc1nnc(COc2ccccc2)o1` (centres unmarked) is 4.68%; for `COC(=O)CCC[C@H]1CC2(C[C@H](CCCO[Si](C)(C)C(C)(C)C)N1C(=O)OC(C)(C)C)OCCO2` it is -0.895%.
Consider `C/C(=N\NC(=O)c1ccc(NS(=O)(=O)c2cccs2)cc1)c1ccc2c(c1)OCO2`, for which the “hERG current change (%, negative = inhibition) at 10uM” value came out at 11.5%.
Turning to `CC(C)c1ccc(S(=O)(=O)N2CCN(C(=O)Cc3ccsc3)CC2)cc1`, the “hERG current change (%, negative = inhibition) at 10uM” value was -13.3%.
As for `Cn1c(SCC(=O)Nc2ccc(N3CCOCC3)cc2)nnc1-c1ccccc1`, the figure is -4.09%.
The figure for `COc1ccc(CC(=O)NCC2CCCN(Cc3ccccc3Cl)C2)cc1` (centres unmarked) is 4.3%; for `Cc1c(Br)c([N+](=O)[O-])nn1CC(=O)NCc1ccccn1` it is 15.5%.
The figure for `CCCC(C)NC(=O)Cc1ccccc1` (centres unmarked) is -9.74%; for `COc1ccc(N(CC(=O)NC2CCCCC2)C(=O)c2ccc(C)s2)c(OC)c1` it is -18.1%; for `Cn1c(=O)oc2cc(S(=O)(=O)N3CCCCC3)ccc21` it is 2.98%.
For the compound `O=C(Nc1ccc2oc(-c3ccccc3F)nc2c1)c1cncc(Br)c1`, the “hERG current change (%, negative = inhibition) at 10uM” value stood at 1.02%.
As for `COc1cccc(N/N=C(\C#N)S(=O)(=O)C(C)(C)C)c1`, the figure is 26.7%.
As for `CCOC(=O)c1ccc(-n2c(=S)sc3c(=O)[nH]c(C)nc32)cc1`, the figure is 10.8%; as for `O=C(Nc1cccc(Cl)c1)c1cc(N=Nc2ccc([N+](=O)[O-])cc2Cl)ccc1O`, 21.5%; as for `C=C1c2cc(C)ccc2NC(=O)N1c1ccccc1`, 2.71%.
As for `O=C(CCC(=O)N(CC(=O)NC1CCCC1)c1ccc(F)cc1)Nc1nccs1`, the figure is 4.37%; as for `CN(C)CCCN(C(=O)c1ccc(S(=O)(=O)N2CCCCCC2)cc1)c1nc2cc3c(cc2s1)OCCO3.Cl`, -59.7%.
As to `COc1ccccc1NCCC#N`, the “hERG current change (%, negative = inhibition) at 10uM” value came out at 12.9%.
As for `COc1ccc(N2C(=O)CCC(C(=O)O)C2c2ccc(F)cc2)cc1` (centres unmarked), the figure is 24.6%; as for `CCOC(=O)c1c(C)nn(-c2ccc(NC(=O)c3cccs3)cc2)c1C`, 16.8%; as for `COc1cc(/C=N/NC(=O)CCn2cnc(-c3ccccc3)c2-c2ccccc2)ccc1O`, -28.2%.
The figure for `N#Cc1ccc(CN2CCN(CC(=O)Nc3ccccc3C(=O)NC3CC3)CC2)cc1` is -77.9%.
Take `O=C(CCCN1C(=O)c2ccccc2C1=O)OC1CSCC1NC(=O)c1ccccc1` (centres unmarked): the “hERG current change (%, negative = inhibition) at 10uM” value was -11.3%.
For `CCn1c(=O)c(C(=O)CN2CCN(S(=O)(=O)c3ccccc3)CC2)c(N)n(Cc2ccccc2)c1=O`, the “hERG current change (%, negative = inhibition) at 10uM” value is -14.6%.
As for `CCCc1cc(=O)[nH]c(SCC(=O)NCc2ccc3c(c2)OCO3)n1`, the figure is -37.9%; as for `Cc1onc(-c2c(Cl)cccc2Cl)c1NC(=O)NNc1ccccc1`, -4.33%.
The figure for `Cc1ccsc1/C=N/NC(=O)Cc1cccn1C` is 6.25%; for `CCNc1nc(ON=C(C)C)nc(N(C)C)n1` it is 18.1%.
As for `COc1ccccc1-c1nc2c3ccccc3nc(=S)n2[nH]1`, the figure is 32.7%; as for `COc1cccc(/C=N/NC(=O)CNC(=O)COc2cccc(C)c2)c1O`, 6.02%.
Regarding `CCOC(=O)C1=C(COC(=O)/C=C/c2ccc([N+](=O)[O-])cc2)NC(=O)NC1C` (centres unmarked), the “hERG current change (%, negative = inhibition) at 10uM” value is on record as -44.7%.
The figure for `Cc1cc(C)c2c(c1)/C(=N/NC(=S)Nc1ccc(F)cc1)CCC2` is 6.9%; for `NC(=O)C1CC(=O)N(c2ccc(OCC(=O)Nc3ccc(F)cc3)cc2)C1` (centres unmarked) it is 15.6%; for `COc1ccc(OC)c(S(=O)(=O)N2CCC(C(=O)NC3CCCCCC3)CC2)c1` it is 9.73%.
As for `C/C(=N\NC(=O)Cn1nc(C)c([N+](=O)[O-])c1C)c1ccco1`, the figure is 26%.
The figure for `COc1cc(NC(=O)c2cccs2)c(OC)cc1NC(=O)Cc1ccccc1` is 5.6%.
`CCCN1C(=O)c2cc(C(=O)NC3CCCCCC3)ccc2C1O` (centres unmarked): the “hERG current change (%, negative = inhibition) at 10uM” value is 6.77%.
As for `CC1CN(CC(=O)c2c(N)n(Cc3ccccc3)c(=O)n(C)c2=O)CC(C)O1` (centres unmarked), the “hERG current change (%, negative = inhibition) at 10uM” value is recorded as -3.47%.
As for `CC(=O)Oc1ccc(-c2cccc(C(=O)NCCCO)c2)cc1`, the figure is -7.79%.
The figure for `Cc1ccc(S(=O)(=O)/N=C(/c2ccc(F)cc2)N2CCCCC2)cc1` is -11.1%.
As for `CC(C)CC(=O)Nc1c2c(nn1-c1ccc(F)cc1)CS(=O)C2` (centres unmarked), the figure is 25.8%; as for `CCC(=O)c1ccc(N2CCN(C(=O)c3cccc(F)c3)CC2)c(F)c1`, -41.6%; as for `CC1(C)C(c2ccccc2)=NC(c2ccc(F)cc2)N1O` (centres unmarked), -8.06%.
In the case of `CCOc1ccc(CCNC(=O)COC(=O)c2c(C)nn(-c3ccccc3)c2C)cc1OCC`, the “hERG current change (%, negative = inhibition) at 10uM” value is given as -12.6%.
The figure for `CN(C)S(=O)(=O)Oc1ccsc1C(=O)Nc1ccc(Cl)cc1` is -33.7%; for `COc1ccc(CCCC(=O)Nc2cc(C)ccc2OC)cc1` it is -14.2%; for `CC(=O)c1ccc(NC(=O)CN2CCOCC2)cc1.Cl` it is 17%.
As for `N/C(=N\OC(=O)c1ccc(Cl)cc1Cl)c1ccc(Cl)cc1`, the figure is 7.62%; as for `CN1CCN(c2ccc(CNS(=O)(=O)c3ccc(F)cc3Cl)cc2)CC1`, -12.7%; as for `O=C(NCc1ccccc1)c1ccc(NC(=O)c2ccccc2F)cc1`, 12.3%.
In the case of `CCOC(=O)c1c(CN2CCCCC2)oc2ccc(O)cc12.Cl`, the “hERG current change (%, negative = inhibition) at 10uM” value is given as -54.3%.
